# Source: the supplement of paper PMC9135407
# Where “and” joins values, the source holds several entries; their conditions need not be identical. Equal values may be shown once. Where a name gives a salt, the structure may show the parent alone. The campaign covered roughly 5,800 compounds. About 620 (11%) showed activity.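 How the source made its calls: active = score above a cut-off or among the top three wells of a plate; in these data no inactive exceeds 0.85.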 The entries are a selection whose mix differs from that of the whole data set.
# Tested on: primary human hepatic stellate cells (donor 1)
# Assay: scaled lipid accumulation score (0 = DMSO-like, 1 = nortriptyline-like); higher = stronger HSC inactivation (lipid re-accumulation), active = hit call of the paper
# Conditions: 48 h
# [1] = library stock concentration: 10 mM
# [2] = library stock concentration: 3.33 mM
# [3] = library stock concentration: 4.8 mM
smiles,measurement,setting,value
CC(C)(C)c1ccc(S(=O)(=O)/C=C/C#N)cc1,scaled lipid accumulation score,[1],active: 1.12
CC(C[N+](C)(C)C)OC(N)=O (centres undefined) [Urecholine],scaled lipid accumulation score,[1],inactive: ≤ 0
CC(C[N+](C)(C)C)OC(N)=O (centres undefined) [Bethanechol chloride],scaled lipid accumulation score,,inactive: ≤ 0
same,scaled lipid accumulation score,[2],inactive: 0.009
same,scaled lipid accumulation score,[1],inactive: ≤ 0 and inactive: 0.166
O=C1C(Cl)=C(N2C(=O)CCC2=O)C(=O)c2ccccc21 [MEK Inhibitor II],scaled lipid accumulation score,[2],inactive: 0.073
COc1ccc(C[C@H](NC(=O)[C@H](C)NC(=O)CN2CCOCC2)C(=O)N[C@@H](Cc2ccccc2)C(=O)[C@@]2(C)CO2)cc1,scaled lipid accumulation score,[2],inactive: 0.535
same,scaled lipid accumulation score,[1],inactive: 0.603
C=CCc1ccc(O)c(-c2cc(CC=C)ccc2O)c1 [Magnolol],scaled lipid accumulation score,[2],inactive: ≤ 0
same,scaled lipid accumulation score,[1],inactive: 0.538
COc1ccc2c(c1)C(=O)N(CCc1ccc(S(=O)(=O)NC(=O)NC3CCCCC3)cc1)C(=O)C2(C)C [Gliquidone],scaled lipid accumulation score,,inactive: ≤ 0
CCCCCCCCCCOc1cc2c(O)c(C(=O)OCC)cnc2cc1OCC [Decoquinate],scaled lipid accumulation score,[3],inactive: ≤ 0
CN(C)CCN(Cc1ccc(Cl)cc1)c1ccccn1 [Chloropyramine hydrochloride],scaled lipid accumulation score,,inactive: 0.325
CC(C)c1cccc(=O)c(O)c1 [Hinokitiol],scaled lipid accumulation score,library stock concentration: 30.5 mM,inactive: 0.187
NS(=O)(=O)Cc1noc2ccccc12 [Zonisamide],scaled lipid accumulation score,[2],inactive: 0.04
same,scaled lipid accumulation score,library stock concentration: 9.4 mM,inactive: ≤ -0.006
same,scaled lipid accumulation score,[1],inactive: 0.005 and inactive: 0.017 and inactive: ≤ 0
CC(=N)NCc1cccc(CN)c1 [1400W dihydrochloride],scaled lipid accumulation score,[1],inactive: ≤ -0.006
"CCCCC/C=C/C=C1/C=CC(=O)[C@@H]1CCCCCCC(=O)O [15-deoxy-.DELTA.12,14-Prostaglandin A1]",scaled lipid accumulation score,library stock concentration: 1 mM,inactive: ≤ 0
C[C@H](NC[C@H](O)CP(=O)(O)Cc1ccccc1)c1ccc(Cl)c(Cl)c1,scaled lipid accumulation score,[1],inactive: ≤ -0.006
CC(=O)c1cc([N+](=O)[O-])c(Sc2ccc(F)cc2F)s1,scaled lipid accumulation score,[2],inactive: ≤ -0.009
same,scaled lipid accumulation score,[1],inactive: ≤ 0
COc1ccc([C@@H]2Sc3ccccc3N(CCN(C)C)C(=O)[C@@H]2OC(C)=O)cc1 [Diltiazem hydrochloride],scaled lipid accumulation score,,inactive: 0.165
same,scaled lipid accumulation score,library stock concentration: 4.4 mM,inactive: 0.107
same,scaled lipid accumulation score,[1],inactive: 0.492 and inactive: 0.353 and inactive: 0.361
COc1ccc([C@@H]2Sc3ccccc3N(CCN(C)C)C(=O)[C@@H]2OC(C)=O)cc1,scaled lipid accumulation score,[1],inactive: 0.508
COc1ccc([C@@H]2Sc3ccccc3N(CCN(C)C)C(=O)[C@@H]2OC(C)=O)cc1 [Diltiazem],scaled lipid accumulation score,[3],inactive: 0.276
COc1ccc([C@@H]2Sc3ccccc3N(CCN(C)C)C(=O)[C@@H]2OC(C)=O)cc1 [Diltiazem HCl],scaled lipid accumulation score,[2],inactive: 0.041
same,scaled lipid accumulation score,[1],inactive: 0.547
